Experimental data: the antibiotic and cytotoxicity screens of Wong et al. (2023)
The list shows a part of the results.

Each compound was assayed on HSkMC (human skeletal muscle cells) (assay: cytotoxicity call (relative viability < 0.9)). Conditions: 10 µM.

SMILES	cytotoxicity call
C[C@H](CO)N1C[C@H](C)[C@H](CN(C)Cc2ccccc2)Oc2ccc(NC(=O)Nc3ccc(C(F)(F)F)cc3)cc2C1=O	inactive
C[C@@H]1CN([C@H](C)CO)C(=O)c2cc(NS(=O)(=O)c3ccc(F)cc3)ccc2O[C@@H](C)CCCCO[C@@H]1CN(C)S(=O)(=O)c1cn(C)cn1	inactive
C[C@@H]1CN([C@@H](C)CO)C(=O)c2cc(-c3ccc(F)cc3)cnc2O[C@@H]1CN(C)C(=O)Cc1ccccn1	inactive
Cc1ccccc1S(=O)(=O)N1C[C@H](O)COC[C@H]2O[C@H](CC(=O)NCCc3ccncc3)CC[C@@H]21	inactive
OCc1cnccn1	inactive
CC(=O)N1CCC2(CC1)NC(=O)NC2=O	inactive
COc1ccc(C#Cc2ccc([C@@H]3[C@@H](CO)N4CCCCN(S(=O)(=O)c5cn(C)cn5)C[C@@H]34)cc2)cc1	active
C[C@@H]1CN([C@@H](C)CO)C(=O)Cc2cc(NS(=O)(=O)c3cn(C)cn3)ccc2O[C@H]1CN(C)C	inactive
Cc1ccc(N(CC(=O)O)S(C)(=O)=O)cc1	inactive
O=C(N[C@H](c1ccc(F)cc1)c1ccc2ccccc2n1)C1CCN(Cc2ccc(Oc3ccccc3)cc2)CC1	inactive
O=C(C1=C[C@@H](c2coc3ccccc3c2=O)C[C@@H](OCCCCO)O1)N1CCN(Cc2ccc3c(c2)OCO3)CC1	inactive
C[C@@H]1CN([C@H](C)CO)C(=O)Cc2cc(NC(=O)Nc3cccc4ccccc34)ccc2O[C@@H]1CN(C)C(=O)Nc1cccc2ccccc12	inactive
C[C@@H]1CN([C@H](C)CO)C(=O)c2cc(NC(=O)Nc3cccc4ccccc34)ccc2O[C@@H]1CN(C)C(=O)Nc1ccccc1	inactive
COC(=O)c1ccc2c(c1)NC(=O)CO2	inactive
C[C@H](CO)N1C[C@H](C)[C@H](CN(C)S(C)(=O)=O)Oc2ccc(NC(=O)Nc3ccc4c(c3)OCO4)cc2CC1=O	inactive
C[N+](C)(C)CCCC[C@@H]1NC(=O)[C@@H]2C[C@H](C(=O)NCCCCCCNC(=O)CS)[C@H](c3ccc(O)cc3)N2C1=O	inactive
CO[C@@H]1CN(C)C(=O)c2cc(NC(=O)Nc3ccccc3)ccc2OC[C@@H](C)N(C(=O)CN(C)C)C[C@H]1C	inactive
CNC[C@@H]1OCCCC[C@@H](C)Oc2ccc(NC(=O)Nc3ccc(C(F)(F)F)cc3)cc2C(=O)N([C@H](C)CO)C[C@H]1C	inactive
C[C@H](CO)N1C[C@H](C)[C@H](CN(C)Cc2ccc(Oc3ccccc3)cc2)Oc2ccc(NC(=O)Nc3ccc4c(c3)OCO4)cc2CC1=O	inactive
OCc1cncnc1	inactive

SMILES	cytotoxicity call
Cc1cc(C(=O)N2CCNC(=O)C2(C)C)no1	inactive
C[C@H]1CN([C@@H](C)CO)C(=O)c2cc(C3=CCCCC3)cnc2O[C@@H]1CN(C)C(=O)CN1CCOCC1	inactive
COc1ccc(NC(=O)N(C)C[C@H]2OCCCC[C@@H](C)Oc3ccc(NS(=O)(=O)c4ccccc4)cc3C(=O)N([C@H](C)CO)C[C@H]2C)cc1	inactive
C[C@@H]1CN([C@@H](C)CO)C(=O)c2cccc(NC(=O)Nc3ccc(F)cc3)c2O[C@H]1CN(C)Cc1ccc(-c2ccccc2)cc1	active
C[C@H](CO)N1C[C@H](C)[C@H](CN(C)S(=O)(=O)c2ccccc2)Oc2ncc(-c3ccc(F)cc3)cc2C1=O	inactive
C[C@@H]1CCCCO[C@H](CN(C)C(=O)CCCN(C)C)[C@@H](C)CN([C@H](C)CO)C(=O)c2cc(NS(=O)(=O)c3cn(C)cn3)ccc2O1	inactive
COc1ccc(C#Cc2cccc(-c3nc(C(=O)N4CCN(Cc5ccccc5)CC4)cc4c3[C@H](CCO)N(S(=O)C(C)(C)C)C4)c2)cc1OC (stereo not given in full)	inactive
C[C@@H]1CCCCO[C@H](CN(C)C(=O)NC2CCCCC2)[C@H](C)CN([C@@H](C)CO)C(=O)c2cc(NC(=O)Nc3ccc4c(c3)OCO4)ccc2O1	inactive
C[C@@H]1CCCCO[C@@H](CN(C)C(=O)Nc2ccccc2)[C@@H](C)CN([C@@H](C)CO)C(=O)c2cc(NS(=O)(=O)c3ccccc3)ccc2O1	inactive
O=C(O)c1ccccc1O	inactive
COc1ccc(NC(=O)N(C)C[C@H]2Oc3ccc(NS(C)(=O)=O)cc3CC(=O)N([C@@H](C)CO)C[C@H]2C)cc1	inactive
C[C@@H]1CN([C@H](C)CO)C(=O)Cc2cc(NC(=O)CCN3CCOCC3)ccc2O[C@H]1CN(C)S(=O)(=O)c1cn(C)cn1	inactive
COc1ccc2c3c(n(c2c1)C)[C@@H](CO)N(C[C@]13CCN(CC1)C(=O)c1ccncc1)C(=O)c1cnccn1	inactive
CC(C)NC(=O)N(C)C[C@@H]1OCCCC[C@@H](C)Oc2ccc(NS(=O)(=O)c3cn(C)cn3)cc2C(=O)N([C@@H](C)CO)C[C@H]1C	inactive
C[C@@H]1CN([C@H](C)CO)C(=O)c2cc(NS(=O)(=O)c3ccccc3)ccc2O[C@@H](C)CCCCO[C@@H]1CN(C)Cc1ccc2c(c1)OCO2	inactive
COCCOC(=O)N1C(=O)[C@@]2(c3ccccc31)[C@H](c1ccc(O)cc1)N1[C@H](c3ccccc3)[C@H](c3ccccc3)OC(=O)[C@H]1[C@@H]2C(=O)N1CCc2cc(OC)c(OC)cc2C1	inactive
Cn1cnc(CCNC(=O)C[C@@H]2CC[C@H]3[C@@H](COC[C@H](O)CN3C(=O)C3CC3)O2)c1	inactive
C[C@@H]1CN([C@H](C)CO)C(=O)c2cc(NC(=O)CCN3CCOCC3)ccc2O[C@@H]1CN(C)Cc1ccncc1	inactive
COc1cccc(O)c1O	inactive
CCc1nc2ccc(C(=O)N3CCN(c4ccccc4)CC3)cn2c1N(CC)Cc1cccc(Br)c1	inactive
